Test results from PubChem BioAssay AID504832 (National Center for Advancing Translational Sciences (NCATS), 2011).
Out of some 310,000 compounds screened, about 18,000 (5.8%) were called active. The shares of active, inactive and inconclusive entries below differ from those in the screen. The call rests on the fitted dose curve; in most records, active means well fitted inhibition curve with a large enough effect; inconclusive means small, poorly fitted or top-dose-only effect, or another doubt; inactive means no such curve, though single readings can be large or run the other way. Potencies of inconclusive entries are left out as doubtful fits.

Experiment: Primary qHTS for delayed death inhibitors of the malarial parasite plastid, 48 hour incubation
Details: P. falciparum luciferase growth in erythrocytes; series mostly up to 28.7 µM
How it was run: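 A one-generation exposure of luciferase-tagged malaria parasites in RPMI 1640/Albumax erythrocyte culture, 37 C and 5% CO2. Inhibition is inferred from decreased luminescence after adding detection reagent.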
Potency means the concentration at half of the fitted maximal effect; tags describe the fitted curve by direction and shape.

| SMILES | Potency |
| --- | --- |
| Cc1c(C(=O)N(C)CCCCN2CCOCC2)oc2c(F)cccc12 | inactive |
| CCOC(=O)c1cc2n(c1N)-c1ccccc1C2=O | inconclusive [inhibitor, single point] |
| COc1ccccc1N(CC(=O)NCc1ccco1)C(=O)CCC(=O)Nc1ccccn1 | inconclusive [inhibitor, partial curve, poor fit] |
| CCC(c1nnnn1CS(=O)(=O)c1ccc(C)cc1)N1CCN(c2nc3ccccc3s2)CC1 (centres undefined) | active: 8.28 µM |
| NC(=S)n1[nH]c(-c2ccc([N+](=O)[O-])cc2)c(N=Nc2ccccc2[N+](=O)[O-])c1=O | inactive |
| CCOc1ccc2nc(Cl)c(C3CC(c4ccco4)=NN3S(=O)(=O)c3ccccc3)cc2c1 (centres undefined) | inconclusive [inhibitor, partial curve] |
| Cc1ccc(NC(=O)CNc2ccccc2CN(C)C2CCCCC2)cc1 | inconclusive [inhibitor, single point] |
| Cc1n(-c2ccccc2)c2ccc(Cl)cc2[n+]1CCO | inconclusive [inhibitor, partial curve] |
| CCOc1ccc(NC(=O)Nc2ccon2)cc1 | inactive |
| CCOC(=O)c1cc(-c2ccc(OC)cc2)n(CCC(=O)NCCN2CCC(C)CC2)c1C | inconclusive [inhibitor, single point] |
| CC(C)(C)NC(=O)CSc1nc2ccc(Nc3nc(N4CCOCC4)nc(N4CCOCC4)n3)cc2s1 | active: 7.38 µM |
| COc1ccc(CCn2c(C)nc3c(c(=O)c4ccccc4n3C)c2=O)cc1 | inconclusive [inhibitor, partial curve, poor fit] |
| CCOc1cc(C(=O)Nc2cccnc2)cc(OCC)c1OCC | inconclusive [inhibitor, single point] |
| c1ccc(CSc2nnnn2-c2ccc3c(c2)OCCO3)nc1 | inactive |
| CCOc1ccc(NC(=O)CSc2ccccc2N)cc1 | inactive |
| COCCn1c(=O)[nH]c2cc(C(=O)Nc3cc(OC)c(OC)c(OC)c3)ccc2c1=O | inconclusive [inhibitor, partial curve, poor fit] |
| Cc1nnc(NCCc2ccccc2)c2ccccc12 | inactive |
| COc1ccc(OCc2ccc(C(=O)O)cc2)cc1 | inactive |
| CCCc1cc(=O)[nH]c(SCC(=O)N2CCCC2=O)n1 | inconclusive [inhibitor, single point] |
| CC/C(C)=N/Nc1nc2sc3c(c2c(=O)[nH]1)CC(C)(C)OC3 | inconclusive [inhibitor, single point] |
| CCOc1ccccc1NC(C)C(=O)NC(=O)NC1CCCCC1 (centres undefined) | inconclusive [inhibitor, partial curve] |
| N#Cc1c(N)nc(SCc2ccccn2)c(C#N)c1-c1cccs1 | inconclusive [inhibitor, partial curve, poor fit] |
| CC(=O)Nc1ccc(-c2csc(Nc3ccc(S(N)(=O)=O)cc3)n2)cc1 | inconclusive [inhibitor, full curve, poor fit] |

| SMILES | Potency |
| --- | --- |
| C/C(=N\NC(=O)c1nnn(-c2nonc2N)c1CN1CCCCC1)c1ccccc1O | inconclusive [inhibitor, single point] |
| O=C(NCCN1CCN(c2ccccc2F)CC1)c1ccc2nc3ccccc3c(=O)n2c1 | inconclusive [inhibitor, single point] |
| Cc1cc(N2CCCC2)nc2ccc(NC(=S)NC(C)C)cc12 | active: 10.4 µM |
| C=CCOC(=O)C1=C(C)NC(SCC(=O)N(CC)CC)=C(C#N)C1c1ccccc1 (centres undefined) | inconclusive [inhibitor, partial curve, poor fit] |
| CCN1CCN(C(=O)Nc2ccc(Cc3ccc(NC(=O)N4CCN(CC)CC4)cc3)cc2)CC1 | inconclusive [inhibitor, single point] |
| O=C(CN1CCN(C(=O)c2ccco2)CC1)Nc1ccc(Cl)c(C(F)(F)F)c1 | inactive |
| Cc1cc(C(=O)COc2ccccc2Cl)c(C)n1-c1ccc2c(c1)OCO2 | inconclusive [inhibitor, partial curve] |
| Cn1c2ccccc2c2cc(C(=O)NNC(=O)CCl)sc21 | inconclusive [inhibitor, partial curve, poor fit] |
| CCc1cccc(C)c1N(C(=O)Cn1c(CO)nc2ccccc21)C(C)COC (centres undefined) | inconclusive [inhibitor, single point] |
| CNc1nc(-c2ccc3c(c2)CCN3C(=O)c2ccccc2F)c(C)s1 | inconclusive [inhibitor, single point] |
| COc1ccccc1/C=C/CN1CCCC(CO)(Cc2cccc(Cl)c2)C1 (centres undefined) | inconclusive [inhibitor, single point] |
| COc1cccc(CN2CCC(Oc3ccc(C(=O)NCc4ccccn4)cc3)CC2)c1 | inconclusive [inhibitor, partial curve, poor fit] |
| Cc1ccc(C(=O)N2CCC3(CC2)Oc2ccc(Cl)cc2C(=O)C32CC(c3ccc(Cl)cc3)=NO2)s1 (centres undefined) | inconclusive [inhibitor, single point] |
| COc1cc(OC)cc(C(=O)O/N=C(\N)c2ccncc2)c1 | inconclusive [inhibitor, single point] |
| O=C(NN1C(=O)c2ccccc2NC1c1ccc([N+](=O)[O-])o1)c1ccccc1 (centres undefined) | inactive |
| COC(=O)C1C(=O)C2=C(CC1C)NC(=O)CC2c1ccc(O)c(OC)c1 (centres undefined) | inconclusive [inhibitor, partial curve, poor fit] |
| CCOC(=O)C1CCCN(CC(=O)c2c[nH]c3ccc(C)cc23)C1 (centres undefined) | inconclusive [inhibitor, partial curve, poor fit] |
| CCc1cccc(CC)c1NC(=S)NCCc1c(C)[nH]c2ccccc12 | active: 13.1 µM |
| COc1cccc(/C=C/C(=O)OCC(=O)c2ccc3c(c2)NC(=O)CO3)c1OC | inconclusive [inhibitor, partial curve, poor fit] |
| COc1ccc(O)c(-c2cc(-c3ccc(F)cc3)n[nH]2)c1 | inconclusive [inhibitor, single point] |
| CCCOc1ccc(NC(=O)CC2C(=O)N(CC)C(=S)N2CCCN2CCN(Cc3ccccc3)CC2)cc1 (centres undefined) | inconclusive [inhibitor, partial curve] |
| O=C(Cn1c(=O)oc2ccccc21)Nc1ccc(Cl)cc1Cl | inactive |
| C/C(=N\NC(=O)Cc1cccn1C)c1ccco1 | inactive |

| SMILES | Potency |
| --- | --- |
| CCOC(=O)c1sc(NC(=O)CNCc2ccccn2)c(C(=O)OCC)c1C | active: 1.04 µM |
| Cc1cc(C)c(S(=O)(=O)N2CCCCC2CCNC(=O)C(=O)NC2CC2)c(C)c1 (centres undefined) | active: 9.28 µM |
| CCCCN(C(=O)c1cc2c(s1)CCCCC2)c1c(N)n(CC(C)C)c(=O)[nH]c1=O | inconclusive [inhibitor, single point] |
| COc1cccc(C(Nc2ccccn2)c2c(NC(=O)c3ccco3)sc(C)c2C)c1 (centres undefined) | active: 8.28 µM |
| CN1CCN(C(CNS(=O)(=O)c2ccc([N+](=O)[O-])cc2)c2ccc(F)cc2)CC1 (centres undefined) | inconclusive [inhibitor, single point] |
| O=C1CCc2cc(S(=O)(=O)NCCC(=O)N3CCN(c4cccc(Cl)c4)CC3)ccc2N1 | inconclusive [inhibitor, single point] |
| CCc1ccc(C2NC(c3ccc(CC)cc3)C([N+](=O)[O-])C(C)(C)C2[N+](=O)[O-])cc1 (centres undefined) | inconclusive [inhibitor, single point] |
| O=C(NCc1ccccn1)C1CCN(S(=O)(=O)c2ccc(Br)cc2)CC1 | inactive |
| CCOC(=O)c1sc(NC(=O)c2cc3n(n2)C(C(F)(F)F)CC(c2cccs2)N3)c(C(=O)OCC)c1C (centres undefined) | inconclusive [inhibitor, full curve, poor fit] |
| CN(C)c1cccc2c1c(NC(=O)c1ccc(F)cc1)nn2C | inactive |
| CCC(NC(=O)CNC(=O)CNC(=O)c1ccc(Cl)cc1Cl)c1ccc(C)cc1 (centres undefined) | inactive |
| CCN(C(=O)c1cc2c(=O)n3ccccc3nc2s1)C1CCCCC1 | inconclusive [inhibitor, single point] |
| CCOc1ccc(-c2nnn(CCC#N)n2)cc1OC | inactive |
| COc1ccc(Cc2noc(CN3CCCC(OCc4ccccn4)C3)n2)cc1OC (centres undefined) | inconclusive [inhibitor, single point] |
| O=C(NC(=S)Nc1ccccc1Cl)c1csnn1 | inactive |
| O=C(CCCC(=O)N1CCc2ccccc21)N1CCc2ccccc21 | inactive |
| COc1cc(CN2CCCC(N3CCN(c4ccccc4C)CC3)C2)cc(Cl)c1O (centres undefined) | inconclusive [inhibitor, partial curve, poor fit] |
| c1ccc(C(c2ccccc2)c2noc(CN3CCN(C4CCCC4)CC3)n2)cc1 | inconclusive [inhibitor, partial curve] |
| CCOC(=O)c1cnc(SCc2ccc(C)cc2)nc1N | inactive |
| Cc1ccc(Nc2nnns2)cc1 | inactive |
| CCCCn1c(SCc2nnc(-c3ccccc3)o2)nc2c1c(=O)n(C)c(=O)n2C | inconclusive [inhibitor, partial curve, poor fit] |
| O=C(CSc1nnc2c(n1)[nH]c1ccc(F)cc12)Nc1ccccc1F | inactive |
| COCCNC(=S)N(CCc1c(C)[nH]c2ccc(C)cc12)Cc1ccco1 | inconclusive [inhibitor, single point] |
